# In PubChem BioAssay AID662 (National Center for Advancing Translational Sciences (NCATS), 2007):
# About 1,800 (2.5%) of roughly 71,000 compounds were called active. The inconclusive results got no clear call from the source; some entries with a clear call stand among them for comparison. The call rests on the fitted dose curve; in most records, active means well fitted activation curve with a large enough effect in the signal ratio, with a control signal flat (not every such curve was filed as active); inconclusive means small, poorly fitted or top-dose-only effect, or effect the other way, or a change in a side signal; inactive means flat fitted curve, though single readings scatter; the % refers to the signal ratio. Potencies beside an inconclusive call are fits to weak or partial responses and may not hold up.
# Test: Cell signaling CRE-BLA (Fsk stim); on activity change, negative = inhibition: % of control where 0% means no effect
# Details: CHO CRE-bla reporter (cAMP response element driving beta-lactamase), forskolin EC10, beta-lactamase ratio; activity change, negative = inhibition: at 38.2 µM (top of the series) unless noted
# In short: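 Beta-lactamase reporter under a cAMP responsive element in CHO cells; compounds tested in titration series against EC10 NKH 477, 3 h at 37 °C. Read-out: CCF4 FRET ratio 460nm/530nm (excitation 405nm) giving %Activity, fitted to AC50.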
# Potency means the concentration at half of the fitted maximal effect; tags describe the fitted curve by direction and shape.
Compound,Potency,"activity change, negative = inhibition"
COc1cc(NC(=O)C2CCN(S(=O)(=O)c3cccnc3)CC2)cc(OC)c1OC,"inconclusive: 0.501 µM [rising, full curve]",–
N#CCCN1CCN(Cc2cc(-c3ccccc3)ccc2O)CC1,–,inactive: -5.75%
COc1cc2[nH]c(=O)n(CCCC(=O)N3CC=C(c4ccccc4)CC3)c(=O)c2cc1OC,–,inactive: 3.81%
COc1cc(OC)cc(C(C)=O)c1,"inconclusive: 20 µM [rising, single point]",–
c1cc(NNc2cccc(-c3nn[nH]n3)c2)cc(-c2nn[nH]n2)c1,–,inactive: 14.4% [at 7.6 µM]
Cc1ccc2[nH]c3c(c2c1)CN(C(=O)CN1CCSCC1)CC3,"inconclusive: 12.6 µM [falling, single point]",–
CCOc1ccccc1-c1nc(-c2ccc(NC(=O)Cc3ccc(OC)cc3)cc2)no1,–,inconclusive: -10.9%
CCOC(=O)c1ccccc1NC(=O)c1cc(S(=O)(=O)N2CCOCC2)ccc1F,active: 10 µM,–
COc1ccc(C(=O)NCc2nnc(SCC(=O)Nc3cccc(C(F)(F)F)c3)o2)cc1OC,–,inconclusive: 8.15%
Cc1nc2c3c(-c4ccccc4)nc(N4CCOCC4)nc3nn2c(C)c1CCC(=O)O,–,inconclusive: 12.2%
CN(Cc1ccco1)c1ncncc1-c1ccccc1Cl,–,inconclusive: -2.39%
COc1ccc(-n2nc3cc(C)c(NC(=O)CC(C)C)cc3n2)cc1,–,inconclusive: 20.4% [at 7.6 µM]
CC(C)c1cc(C(=O)NC2CCCCC2)no1,"inconclusive: 3.16 µM [rising, single point]",–
Cc1cc(N2CCCC2=O)cc(C)c1CN1C(=O)c2ccccc2C1=O,–,inconclusive: 32.7%
CCOC(=O)N1CCC(NC(=O)CCc2c(C)nc3ncnn3c2C)CC1,–,inactive: 14.2%
O=C(CSc1nc(Nc2ccccc2)nc(N2CCOCC2)n1)Nc1ccccc1Cl,–,inconclusive: 11.7%
CC(C)[C@@H](CC(=O)N[C@@H]1CCNC[C@H]1C(=O)N[C@H](CC(=O)N[C@@H](CCC(=O)O)CC(=O)O)Cc1c[nH]c2ccccc12)NC(=O)C[C@H](CO)NC(=O)[C@@H]1CNCC[C@H]1N,–,inconclusive: -16.5%
CC1=C(C)C(=O)N(c2ccccn2)C1=O,–,inconclusive: 0.274%
COc1ccc(C2=NOC(C(=O)Nc3ccc(C)cc3)C2)cc1OC (configuration not stated),"inconclusive: 0.794 µM [rising, full curve]",–
Cn1c(C(=O)N2COCC2(C)C)cc2c(=O)n3ccccc3nc21,active: 10 µM,–
O=C(NCc1ccc2c(c1)OCO2)c1cccc(C(=O)NCc2ccc3c(c2)OCO3)c1,–,inactive: -6.3%

Compound,Potency,"activity change, negative = inhibition"
COC(=O)C1=C(C)NC(C)=C(C(=O)OC)C1c1ccc(NC(C)=O)cc1,–,inactive: -2.11%
CCCCNc1nc(C)nc2c1nc(-c1ccccc1)n2CCN(C)C,"inconclusive: 12.6 µM [rising, partial curve]",–
Cc1cc(NS(=O)(=O)c2ccc(Nc3nc(-c4sc(N)nc4C)cs3)cc2)no1,–,inactive: 4.21%
O=C(c1ccc2c(c1)C(=O)N(Cc1ccco1)C2=O)N1CCOCC1,"inconclusive: 25.1 µM [falling, single point]",–
O=C(O)Cn1c(=O)oc2cc(S(=O)(=O)N3CCOCC3)ccc21,–,inactive: -3.04%
CC(=O)c1ccc(N2CCCCCC2)c(F)c1,"inconclusive: 0.0794 µM [rising, full curve, poor fit]",–
CCCCCCc1ccc(-c2ccc(C#N)cc2)cc1,–,inactive: 13.5%
Fc1ccc(C(c2nnnn2Cc2ccco2)N2CCN(C3CCCCC3)CC2)cc1 (configuration not stated),–,inactive: -16.3%
CS(=O)(=O)N(CC(N)=O)c1ccc(F)c(Cl)c1,–,inconclusive: 3.45%
COc1ccc(NS(=O)(=O)c2cc(C)ccc2NC(=O)c2cc(C)oc2C)cc1,"inconclusive: 15.8 µM [rising, single point]",–
CCCc1nnc(NC(=O)C(C)N2C(=O)C3C4C=CC(C4)C3C2=O)s1 (configuration not stated),–,inconclusive: -3.81%
COC(=O)c1ccccc1NC(=O)COC(=O)CSCC(=O)N1CCOCC1,–,inconclusive: 26.9%
CC(=O)N1CSCC1C(=O)N1CCN(c2ccc(N3CCOCC3)nn2)CC1 (configuration not stated),–,inactive: 6.04%
Cc1ccc(Nc2nc(C(=O)N3CCC(C(=O)N4CCN(C)CC4)CC3)cs2)cc1,–,inconclusive: 0.171%
COc1ccccc1N1CCN(c2nc(-c3ccccc3)cc(C(F)(F)F)n2)CC1,–,inactive: -0.555%
O=C(NC1CCCCCC1)C1CCN(c2nc3ccccc3o2)CC1,–,inactive: 0.000483%
Cc1nn(C)c(C)c1S(=O)(=O)N1CCC(C(=O)NC(C)c2ccccc2)CC1 (configuration not stated),–,inactive: -3.24%
CC1CCc2sc3nc(NCc4ccco4)n4ncnc4c3c2C1 (configuration not stated),"inconclusive: 5.01 µM [rising, partial curve]",–
CC(C)CCNC(=O)CN(Cc1ccc2c(c1)OCO2)C(=O)Cn1nnc(-c2cccs2)n1,–,inconclusive: 16.7% [cytotoxic]
Cc1nc2ccccn2c1-c1nnco1,"inconclusive: 10 µM [rising, single point]",–
Cc1cc(C)c(C#N)c(=N)o1,–,inactive: -4.67%

Compound,Potency,"activity change, negative = inhibition"
CC(=O)Cc1nsc(NC(=O)c2csc3c2CCCC3)n1,"inconclusive: 10 µM [rising, partial curve]",–
O=C(Nc1ccccc1F)N(CCCN1CCOCC1)Cc1cc2cc3c(cc2[nH]c1=O)OCCO3,"inconclusive: 10 µM [rising, partial curve]",–
COc1ccc(CNc2ncnc3ccc(-c4cccc(NS(C)(=O)=O)c4)cc23)c(OC)c1,"inconclusive: 6.31 µM [rising, partial curve]",–
COC(=O)CSc1nc2c(c(=O)[nH]c(=O)n2C)n1CCC(C)C,–,inconclusive: 28.9%
COc1nc(NC(C)(C)C)nc(Oc2ccc(=O)n(-c3ccccc3)n2)n1,"inconclusive: 15.8 µM [rising, partial curve]",–
CCOC(=O)c1c(C2COc3ccccc3O2)csc1NC(=O)c1ccco1 (configuration not stated),active: 2 µM,–
O=C(CCCC(=O)N(CC(=O)NC1CCCC1)Cc1ccccc1Cl)Nc1ccccn1,"inconclusive: 3.98 µM [falling, full curve, poor fit]",–
CCOC(=O)c1cccc(NC(=O)C2CCCN(S(=O)(=O)c3c(C)n[nH]c3C)C2)c1 (configuration not stated),–,inactive: 5.7%
Cc1nc(CSc2nnc3scc(-c4ccccc4)n23)cs1,–,inconclusive: 39.9%
Cc1cc(C)c2c(N)c(C(=O)Nc3nccs3)sc2n1,"inconclusive: 15.8 µM [rising, single point]",–
Cc1noc(C)c1S(=O)(=O)N(CC(=O)O)c1ccc2c(c1)OCO2,–,inconclusive: 11.3%
COCC(C)NC(=O)CCS(=O)(=O)c1nc(-c2ccc(OC)cc2)cc(C(F)(F)F)n1 (configuration not stated),–,inconclusive: -15.7%
CN(C)c1ccc(/C=[N+](\[O-])C2SC(=S)N(C)C2(C)C)cc1 (configuration not stated),–,inactive: 3.32%
Cc1ccc(Nc2nc(C)c(CCC(C)C)c(=O)[nH]2)cc1,–,inactive: 2.72%
CN1CCCN([C@@H](c2ccccc2)c2ccc(Cl)cc2)CC1,–,inactive: -10.9% [at 17.1 µM]
NCCCCCCNS(=O)(=O)c1ccc2c(Cl)cccc2c1,–,inactive: -11.9%
C[C@H](CCC(=O)NN)[C@@H]1CC[C@@H]2[C@H]3CC[C@H]4C[C@@H](O)CC[C@@]4(C)[C@@H]3CC[C@]21C,–,inactive: 13.7% [at 7.6 µM]
O=C(O)c1cccc(NC(=O)C2CC(=O)N(Cc3ccccc3)C2)c1 (configuration not stated),–,inactive: -4.93%
CCOc1ccc2cc(S(=O)(=O)N3CCOCC3)ccc2c1,"inconclusive: 5.01 µM [rising, single point]",–
COc1ccc(C(O)P(=O)(O)CCc2ccccc2)cc1 (configuration not stated),–,inconclusive: 9.52%
CC(C)(C)c1ccccc1NC(=O)c1ccco1,–,inconclusive: -13.3%

Compound,Potency,"activity change, negative = inhibition"
CCC(C(=O)N1CCN(c2cccc(Cl)c2)CC1)c1ccccc1 (configuration not stated),–,inconclusive: -25.7%
COc1[nH]c2ccc(F)cc2c1C(=O)OCC1CCN(CCNS(C)(=O)=O)CC1,–,inconclusive: -7.3%
CCCCC1CCC(c2nc(-c3cccnc3)no2)CC1 (configuration not stated),"inconclusive: 2.51 µM [rising, partial curve]",–
COc1ccc(NC(=O)c2cnc(C)cn2)c2ncccc12,–,inactive: -8.11%
CC(C)(C)c1csc(N(CCC#N)CCC#N)n1,–,inconclusive: 0.029%
COc1cc(OC)c(C2C3=C(CCCC3=O)Nc3nc4ccccc4n32)cc1OC (configuration not stated),–,inconclusive: 14.6%
Cc1ccc(NC(=O)c2ccccc2O)cc1,"inconclusive: 5.01 µM [falling, single point]",–
COc1ccccc1-c1nnc(NC(=O)C(C)C)s1,–,inactive: 9.26%
Cc1ccc2nc3c(cc(C(=O)NCc4cccnc4)c(=N)n3C(C)C)c(=O)n2c1,–,inconclusive: 28.8%
Clc1cccc(Cl)c1Cn1cnc2c(N3CCCCCC3)ncnc21,active: 2 µM,–
Cn1c(=O)c2nc(-c3ccccc3)oc2c2ccccc21,"inconclusive: 10 µM [rising, single point]",–
O=C(c1cc2ccccc2oc1=O)N(Cc1ccc2c(c1)OCO2)Cc1ccco1,–,inactive: -5.68%
Cc1n[nH]c(C)c1CCc1nc2c3ccccc3nc(SCC(N)=O)n2n1,–,inconclusive: 31.8%
COc1ccc(-n2c(=O)[nH]cc(C(=O)N3CCc4ccccc43)c2=O)cc1,–,inconclusive: -17.4%
CC(Sc1ccccn1)C(=O)Nc1ccccc1 (configuration not stated),–,inconclusive: -17%
COCC(=O)Nc1cccc(Br)c1,–,inconclusive: 16.1%
Cc1cccc(C)c1NC(=O)Cn1c(=O)n(CCC(=O)NCc2ccco2)c(=O)c2sccc21,–,inconclusive: 19%
CC1=C(C(=O)OC2CCCCCCC2)C(c2cccc(O)c2)NC(=O)N1 (configuration not stated),"inconclusive: 0.251 µM [rising, partial curve]",–
Cc1ccccc1Nc1nnc(SCC(=O)NC(=O)NCc2ccco2)s1,–,inactive: -18.8%
